Target: His-p65-N (a.a.1–340) (UniProt Q04206 1-340)
Assay: native gel or EMSA

Chain of UniProt Q04206 (Q04206 1-340): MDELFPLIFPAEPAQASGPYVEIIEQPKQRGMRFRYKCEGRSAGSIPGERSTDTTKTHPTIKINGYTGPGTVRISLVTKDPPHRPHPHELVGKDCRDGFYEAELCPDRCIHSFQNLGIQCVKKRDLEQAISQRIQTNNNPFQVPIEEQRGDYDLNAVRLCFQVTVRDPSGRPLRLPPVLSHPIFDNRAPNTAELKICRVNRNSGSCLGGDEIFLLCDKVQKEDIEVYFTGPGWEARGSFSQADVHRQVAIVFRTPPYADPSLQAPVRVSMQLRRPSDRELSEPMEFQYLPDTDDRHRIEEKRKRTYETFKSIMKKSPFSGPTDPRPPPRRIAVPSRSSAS

- binding result: binds
B1: His-p65-C ([…]) (domain or fragment)
chain: not shown

From article PMC5397172 (Nucleic Acids Research, 2016)
